{"source": "patent US9409966B2", "about": "“Glucagon-like peptide-1 derivatives and their pharmaceutical use” (priority 2007, dated 2016)", "assay": "Alpha-helix content by circular dichroism (CD) spectroscopy", "format": "physicochemical", "note": "Some results were stated once for a whole list of compounds, not compound by compound. At least one compound was matched to its structure with a doubt left.", "data": [{"smiles": "CC[C@H](C)[C@H](NC(=O)[C@H](Cc1ccccc1)NC(=O)[C@H](CCC(=O)O)NC(=O)[C@H](CCCNC(=N)N)NC(=O)[C@H](C)NC(=O)[C@H](C)NC(=O)[C@H](CCC(N)=O)NC(=O)[C@H](CCC(=O)O)NC(=O)[C@H](CCC(=O)O)NC(=O)[C@H](CC(C)C)NC(=O)[C@H](Cc1ccc(O)cc1)NC(=O)[C@H](CO)NC(=O)[C@H](CO)NC(=O)[C@@H](NC(=O)[C@H](CC(=O)O)NC(=O)[C@H](CO)NC(=O)[C@@H](NC(=O)[C@H](Cc1ccccc1)NC(=O)[C@@H](NC(=O)CNC(=O)[C@H](CCC(=O)O)NC(=O)[C@H](C)NC(=O)CCc1c[nH]cn1)[C@@H](C)O)[C@@H](C)O)C(C)C)C(=O)N[C@@H](C)C(=O)N[C@@H](Cc1c[nH]c2ccccc12)C(=O)N[C@@H](CC(C)C)C(=O)N[C@H](C(=O)N[C@@H](CCCNC(=N)N)C(=O)NCC(=O)N[C@@H](CCCNC(=N)N)C(=O)N[C@@H](CCCCNC(=O)CCCS(=O)(=O)NC(=O)CCCCCCCCCCCCCCCc1nnn[nH]1)C(N)=O)C(C)C", "note": "[Example 21, N-epsilon37-[4-(16-(1H-Tetrazol-5-yl)hexadecanoylsulfamoyl)butyryl][DesaminoHis7,Glu22,Arg26,Arg34,Lys37]GLP-1-(7-37)amide]", "values": [{"measurement": "alpha-helical content", "setting": "5 uM concentration, estimated from delta epsilon at 222 nm (−1 M^−1 cm^−1 corresponds to 10%)", "result": "37-60%"}, {"measurement": "delta epsilon at 222 nm", "setting": "5 uM peptide in 10 mM Tris/ClO4 pH 8.0, far-UV CD", "result": "−3.7 to −6.0", "unit": "M^−1 cm^−1"}]}]}
